Test results published in PubChem BioAssay (NCI).
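Growth conditions: 96-well plates. Treatment: test compound, 48 hours, 5 concentrations. Analysis: linear interpolation between bracketing concentrations; unreached endpoints set to highest concentration. GI50 marks 50% less growth. TGI: total growth inhibition.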 Calls of active or inactive are those of the source.

Assays:
Experiment in all cases: NCI anticancer screen, dose series, 48 h
NCI-H23 lung = test system: NCI-H23 lung
UACC-257 melanoma = test system: UACC-257 melanoma
HOP-92 NSCLC = test system: HOP-92 NSCLC
CCRF-CEM leukemia = test system: CCRF-CEM leukemia
NCI-H226 lung = test system: NCI-H226 lung

For `CC(C)(C)c1ccc(Oc2nccc(-c3c(-c4ccc(F)cc4)ncn3C3CCNCC3)n2)cc1`, the GI50 (NCI-H23 lung) was “inactive”, the TGI (NCI-H23 lung) was 7.97 µM and the GI50 (UACC-257 melanoma) was “inactive”. It also gave a TGI (UACC-257 melanoma) of 7.67 µM, a GI50 (HOP-92 NSCLC) of 179 nM and a TGI (HOP-92 NSCLC) of 4.37 µM. The GI50 (CCRF-CEM leukemia) was “inactive”, the TGI (CCRF-CEM leukemia) was 7.04 µM and the GI50 (NCI-H226 lung) was “inactive”. The TGI (NCI-H226 lung) was 8.23 µM.
